Test results: the supplement of paper PMC3334620
Whole data set: some 33,000 sequences, median “E-score (-0.5 to 0.5)” near -0.016, cut for the highest 2% near 0.31. The list shows a part of the results.

These sequences were tested against Cst6 (UniProt P40535) (assay: PBM E-score (8-mer binding enrichment) (E-score (-0.5 to 0.5)); higher = stronger / more preferred TF binding; most listed sequences are background and not binding sites). Conditions: protein concentration: 200 nM; construct: GST-DNA-binding domain.
Protocol: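 Universal 'all 10-mer' protein binding microarrays (Agilent AMADID 015681) probed with GST-tagged S. cerevisiae TFs (full-length or DBD) made by in vitro transcription/translation (PURExpress), about 100-200 nM. Bound TF was detected with fluorescent anti-GST. Each ungapped 8-mer (which stands for itself and its reverse complement) is scored by the PBM enrichment score (E-score), a modified Wilcoxon-Mann-Whitney statistic from -0.5 to +0.5, computed with the Universal PBM Analysis Suite. Scale: above 0.35 generally sequence-specific binding.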

| Sequence | PBM E-score |
| --- | --- |
| ATAGGTAC | -0.0385 |
| AGACCATG | -0.277 |
| AGACGGAA | -0.0491 |
| ACGAATTA | 0.152 |
| TCCCTAAA | 0.0348 |
| GAGTATAA | 0.205 |
| AAAGTGAA | 0.0996 |
| ATTCGGGC | -0.26 |
| CTACTCAC | 0.212 |
| ACTCCACA | -0.0523 |
| AACGGTTG | 0.0747 |
| CTAGATTC | -0.0987 |
| CTAACTCA | -0.0172 |
| ATCGAACA | -0.016 |
| CGGATGGC | 0.0649 |
| ACATTTTA | 0.293 |
| GCGTTCGA | 0.115 |
| GCGCGGAC | 0.09 |
| GTAATTTA | 0.333 |
| CCCTGGTC | -0.407 |
| CCCAATGC | -0.272 |
| ACCTGAAT | 0.207 |
| ACCAAAGG | -0.0742 |
| CGTTTTAA | 0.0215 |
| ACAGCAGT | -0.0163 |

| Sequence | PBM E-score |
| --- | --- |
| AAACTCAA | 0.137 |
| CGAAGCGA | -0.125 |
| ATGTTTCC | -0.055 |
| CGTGGGTC | -0.208 |
| AGAGGGAC | -0.256 |
| GCCAGAGC | -0.317 |
| AGCCCAAA | 0.165 |
| GGCGCAAA | 0.234 |
| CCCGCCAA | -0.22 |
| CGGGCGGC | -0.0888 |
| CAATCTCC | -0.0706 |
| AACCCGAC | 0.017 |
| AAGTGACT | 0.024 |
| CCTGGTGA | 0.076 |
| CGGTTCGA | 0.129 |
| AGAGCCGG | -0.303 |
| TAAGGAAA | 0.104 |
| ATTGTTAC | 0.348 |
| CAGTAGAG | -0.0984 |
| CTGGCAAG | -0.208 |
| AGCTTATG | 0.116 |
| ATTATCTC | 0.182 |
| AAAAGACG | 0.244 |
| ACAAGTTA | 0.132 |
| ACGTCTGC | 0.00409 |

| Sequence | PBM E-score |
| --- | --- |
| GAGTCGGA | -0.107 |
| GGTGCAAC | -0.303 |
| AGGACGCG | -0.192 |
| CACGACCG | -0.261 |
| AGCTCGCG | -0.0577 |
| ACGCCGAG | -0.0115 |
| AGTCTATG | -0.0165 |
| ATCAAGCA | 0.0121 |
| TATGACGA | 0.424 |
| CTGCGGTC | -0.103 |
| CCAGTATA | -0.0987 |
| CCTTAAAA | 0.0606 |
| ATCCATAG | -0.307 |
| GAAAGCCC | -0.0559 |
| ATGAAGAA | 0.194 |
| GCTCATAC | 0.0749 |
| ATACTGGC | -0.14 |
| GAATTCTC | -0.0278 |
| AGAGCCCA | -0.263 |
| GATCCACC | -0.214 |
| AACGTGGT | -0.0291 |
| GGCTGGTA | -0.241 |
| CCATCGGG | -0.0981 |
| AGGTGCAG | -0.202 |
| AGTTGTGC | -0.128 |

| Sequence | PBM E-score |
| --- | --- |
| CCGATTCC | -0.0983 |
| CTCATTAA | 0.0741 |
| TCATTGGA | 0.172 |
| CCCTATGA | 0.019 |
| CCATTGCG | 0.0501 |
| ATAAGCAA | 0.0764 |
| TGAGTACA | 0.121 |
| AAGGCACT | -0.0255 |
| TGAGACAA | -0.0491 |
| ATGCGGTG | -0.1 |
| GAACCATA | -0.0707 |
| CCTTGAAA | -0.0379 |
| ACACCTCG | -0.0507 |
| GAGGACGA | -0.081 |
| ATTGCACG | 0.0893 |
| CTCCCTGC | -0.218 |
| CCGGTAGC | -0.315 |
| CTCAGTTA | 0.0388 |
| CGAAGAAC | 0.175 |
| AATTAGTA | 0.262 |
| AGTCTCTA | -0.101 |
| GTGCGAGA | -0.0281 |
| CGGTCGAG | -0.15 |
| CTCTCTCC | -0.253 |
| TGATGAAA | 0.289 |

| Sequence | PBM E-score |
| --- | --- |
| GCAGGAAA | -0.094 |
| ACGTGACA | 0.248 |
| ACTGGACA | -0.235 |
| ACTACTCT | 0.0211 |
| GACCGAGC | -0.233 |
| ACACCGAA | 0.124 |
| AGCGTCTA | -0.207 |
| GTCCGTCA | 0.227 |
| AGAAACCT | -0.0469 |
| CAGCGTTC | -0.0772 |
| AATGTATA | 0.0762 |
| GCATGGAA | -0.0117 |
| GCTTTATA | 0.0192 |
| GCAATAAC | 0.00721 |
| GACCGACA | -0.127 |
| ATAGTATA | 0.0866 |
| AATAGGAC | -0.0671 |
| AATCGTAC | 0.168 |
| CAGTCAGC | -0.0415 |
| CTTCAAAA | 0.119 |
| AAAATGGA | 0.194 |
| ACTCAATA | 0.161 |
| GAATCGAA | 0.162 |
| CATGTACG | 0.0944 |
| CCGTGCAA | 0.137 |

| Sequence | PBM E-score |
| --- | --- |
| AGAGTAAG | 0.0845 |
| GGATGACC | 0.00132 |
| AACACTAT | 0.272 |
| AGTGTCAC | 0.122 |
| AGGGGTCG | -0.18 |
| CTGCTGAA | -0.0585 |
| CTGTCGTC | 0.187 |
| GACCAGCC | -0.16 |
| AGCAGCAC | -0.218 |
| TACAACTA | 0.0529 |
| ATGAAACA | 0.087 |
| AGAGTGTC | 0.203 |
| ATATGCAT | -0.0114 |
| CAGGTCCC | -0.22 |
| AGCACATG | -0.0275 |
| GTATAGTA | 0.026 |
| CTCAAAGA | 0.037 |
| ACAGAAAG | 0.178 |
| AACAGTGC | -0.096 |
| GAGACAAA | -0.154 |
| CTTAATAA | 0.155 |
| CACGAGTG | -0.0475 |
| GAAATAAC | 0.148 |
| GGCGGTGA | 0.106 |
| ACCTTTAC | 0.0303 |

| Sequence | PBM E-score |
| --- | --- |
| CGCGCCCA | -0.00511 |
| TAACTTAA | 0.213 |
| TATCAACA | 0.179 |
| ACGGCTAA | 0.245 |
| GCAGTCGA | -0.163 |
| AGCGCTTG | -0.105 |
| GTGGTAAC | 0.0774 |
| CGTCAAAA | 0.248 |
| ATATGGAA | 0.0108 |
| CATAGTCG | 0.0293 |
| CTGGTAGC | -0.0346 |
| CGTATTGA | 0.141 |
| AAGAATGC | 0.0306 |
| ACCCTCCG | -0.38 |
| ACCGGACG | 0.0583 |
| AACAACAG | 0.0569 |
| CAAGGACA | -0.0473 |
| GGGCACTA | -0.178 |
| ACTATAAA | 0.162 |
| ATATCTTG | 0.114 |
| AATCGACG | 0.213 |
| AATCTCGT | 0.084 |
